# Measurements taken from patent publication US10377743B2, “Inhibitors of RAS and methods of use thereof” (Araxes Pharma LLC, priority 2016, dated 2019).
# At least one read-out could not be matched to a standard name with certainty.
# Target: T1, KRAS G12C 1-169, his-tagged protein, GDP-loaded (Homo sapiens, UniProt P01116, G12C)
# T1 construct: KRAS G12C 1-169, his-tagged protein, GDP-loaded
# Assay: Biochemical assay: covalent binding (modification %) to KRAS G12C by mass spectrometry
# Conditions: 2 hour incubation period, concentration not stated for compounds above 92
# Method: Test compounds were prepared as 10 mM stock solutions in DMSO (Fisher cat# BP-231-100). KRAS G12C 1-169, his-tagged protein, GDP-loaded was diluted to 2 μM or 0.5 μM in buffer (20 mM Hepes, 150 mM NaCl, 1 mM MgCl2). Compounds were tested for activity as follows:
# Compounds were diluted to 50× final test concentration in DMSO in 96-well storage plates. Compound stock solutions were vortexed before use and observed carefully for any sign of precipitation. Dilutions were as follow: • For 100 μM final compound concentration, compounds were diluted to 5000 μM (5 μL 10 mM compound stock+5 μL DMSO and mixed well by pipetting. • For 30 μM final compound concentration, compounds were diluted to 1500 μM (3 μL 10 mM compound stock+17 μL DMSO) and mixed well by pipetting. • For 10 μM final compound concentration, compounds were diluted to 500 μM (2 μL 10 mM compound stock+38 μL DMSO) and mixed well by pipetting. 49 μL of the stock protein solution was added to each well of a 96-well PCR plate (Fisher cat#1423027). 1 μl of the diluted 50× compounds were added to appropriate wells in the PCR plate using 12-channel pipettor. Reactions were mixed carefully and thoroughly by pipetting up/down with a 200 μL multi-channel pipettor. The plate was sealed well with aluminum plate seal, and stored in drawer at room temperature for 10 minutes, 30 minutes, 2 hours or 24 hours. 5 μL of 2% formic acid (Fisher cat# A117) in de-ionized H2O was then added to each well followed by mixing with a pipette. The plate was then resealed with aluminum seal and stored on dry ice until analyzed as described below.
# The above described assays were analyzed by mass spectrometry according to one of the following two procedures:
# The MS instrument is set to positive polarity, 2 GHz resolution, and low mass (1700) mode and allowed to equilibrate for 30 minutes. The instrument is then calibrated, switched to acquisition mode and the appropriate method loaded.
# After another 30 minute equilibration time, a blank batch (i.e., buffer) is run to ensure equipment is operating properly. The samples are thawed at 37° C. for 10 minutes, briefly centrifuged, and transfer to the bench top. Wells A1 and H12 are spiked with 1 μL 500 μM internal standard peptide, and the plates centrifuged at 2000×g for 5 minutes. The method is then run and masses of each individual well recorded.
# The masses (for which integration data is desired) for each well are pasted into the platemap and exported from the analysis. Masses for the internal standards are exported as well. The data at 50 ppm is extracted for the +19 charge state, and identity of well A1 is assigned using the internal standard spike and integrated. Peak data is exported as a TOF list and the above steps are repeated individually, for the +20, 21, 22, 23, 24, and 25 charge states.
# The masses and peak intensities of KRAS G12C protein species were measured using a Dionex RSLCnano system (Thermo Scientific) connected to a Q Exactive Plus mass spectrometer (Thermo Scientific).
# […] of sample was each loaded onto a Aeris™ 3.6 μm WIDEPORE C4 200 Å, LC Column 50×2.1 mm column maintained at 40° C. at a flow rate of 600 μL/min with 20% Solvent A (0.1% formic acid in H2O) and 80% Solvent B (0.1% formic acid in acetonitrile). The liquid chromatography conditions were 20% solvent B for 1 minute, 20% to 60% solvent B for 1.5 minutes, 60% to 90% solvent for 0.5 minute, 90% solvent B for 0.2 minute, 90% to 20% solvent B for 0.2 minute, and then equilibrated for 1.6 minute before the following sample injection. The flow rate was maintained at 600 μL/min throughout the sample analysis.
# The mass spectrometer was operated in profile mode at a resolution of 17500, 5 microscans, using 50 msec max injection time and an AGC target of 1×10^6, and a full mass range from 800-1850 m/z was recorded. The HCD trapping gas was optimized for maximum sensitivity for intact proteins. […]
row,Compound,Binding %
1,"C=CC(=O)N1CC(N2Cc3c(-c4cc(O)cc5ccccc45)ccc(Cl)c3C2=O)C1 [Compound 163, 2-(1-acryloylazetidin-3-yl)-7-chloro-4-(3-hydroxynaphthalen-1-yl)isoindolin-1-one]",+ (+ indicates binding activity up to 10%)
2,"C=CC(=O)N1CC(N2Cc3cncc(Nc4cc(O)cc5ccccc45)c3C2=O)C1 [Compound 176, 2-(1-acryloylazetidin-3-yl)-7-(3-hydroxynaphthalen-1-ylamino)-2,3-dihydro-1H-pyrrolo[3,4-c]pyridin-1-one]",+++ (+++ indicates binding activity greater than 50%)
3,"C=CC(=O)N1CC(N2Cc3nccc(Nc4c(C)ccc5[nH]ncc45)c3C2=O)C1 [Compound 195, 6-(1-acryloylazetidin-3-yl)-4-(5-methyl-1H-indazol-4-ylamino)-6,7-dihydro-5H-pyrrolo[3,4-b]pyridin-5-one]",+ (+ indicates binding activity up to 10%)
4,"C=CC(=O)N1CCC(n2c3ccc(-c4c(C)ccc5[nH]ncc45)cc3c(=O)n2C)C1 (stereo not drawn) [Compound 94, 1′-(1-acryloylpyrrolidin-3-yl)-2′,5-dimethyl-1′,2′-dihydro-1H,3′H-[4,5′-biindazol]-3′-one]",+ (+ indicates binding activity up to 10%)
5,"C=CC(=O)N1CC(N2Cc3cc(C(F)(F)F)c(-c4cc(O)cc5ccccc45)cc3C2=O)C1 [Compound 170, 2-(1-acryloylazetidin-3-yl)-6-(3-hydroxynaphthalen-1-yl)-5-(trifluoromethyl)isoindolin-1-one]",+++ (+++ indicates binding activity greater than 50%)
6,"C=CC(=O)N1CC(N2Cc3ccc(C4C=NN=C4N)cc3C2=O)C1 (stereo not drawn) [Compound 160, 2-(1-acryloylazetidin-3-yl)-6-(3-amino-4H-pyrazol-4-yl)isoindolin-1-one]",+ (+ indicates binding activity up to 10%)
7,"C=CC(=O)N1CCC(N2Cc3cncc(Nc4cc(O)cc5ccccc45)c3C2=O)CC1 [Compound 194, 2-(1-acryloylpiperidin-4-yl)-7-(3-hydroxynaphthalen-1-ylamino)-2,3-dihydro-1H-pyrrolo[3,4-c]pyridin-1-one]",+ (+ indicates binding activity up to 10%)
8,"C=CC(=O)N1CC(n2c(=O)c3cc(-c4c(C)ccc5[nH]ncc45)ccc3n2C)C1 [Compound 128, 2′-(1-acryloylazetidin-3-yl)-1′,5-dimethyl-1′,2′-dihydro-1H,3′H-[4,5′-biindazol]-3′-one]",++ (++ indicates binding activity from 10 to 50%)
9,"C=CC(=O)N1CC(N2Cc3cncc(Nc4c(O)ccc5ccccc45)c3C2=O)C1 [Compound 188, 2-(1-acryloylazetidin-3-yl)-7-(2-hydroxynaphthalen-1-ylamino)-2,3-dihydro-1H-pyrrolo[3,4-c]pyridin-1-one]",+ (+ indicates binding activity up to 10%)
10,"C=CC(=O)N1CC(N2Cc3cc(C(N)=O)c(-c4c(C)ccc5[nH]ncc45)cc3C2=O)C1 [Compound 169, 2-(1-acryloylazetidin-3-yl)-6-(5-methyl-1H-indazol-4-yl)-1-oxoisoindoline-5-carboxamide]",+ (+ indicates binding activity up to 10%)
11,"C=CC(=O)N1CC(N2Cc3cc(C#N)c(-c4c(C)ccc5[nH]ncc45)cc3C2=O)C1 [Compound 167, 2-(1-acryloylazetidin-3-yl)-6-(5-methyl-1H-indazol-4-yl)-1-oxoisoindoline-5-carbonitrile]",++ (++ indicates binding activity from 10 to 50%)
12,"C=CC(=O)N1CC(N2CCC(=O)c3cc(-c4cc(O)cc5ccccc45)ccc3C2)C1 [Compound 172, 2-(1-acryloylazetidin-3-yl)-7-(3-hydroxynaphthalen-1-yl)-3,4-dihydro-1H-benzo[c]azepin-5(2H)-one]",++ (++ indicates binding activity from 10 to 50%)
13,"C=CC(=O)N1CC(N2Cc3ccc(-c4c(C)ccc5[nH]ncc45)c(Cl)c3C2=O)C1 [Compound 171, 2-(1-acryloylazetidin-3-yl)-7-chloro-6-(5-methyl-1H-indazol-4-yl)isoindolin-1-one]",+ (+ indicates binding activity up to 10%)
14,"C=CC(=O)N1CC(N2Cc3ncnc(Nc4c(C)ccc5[nH]ncc45)c3C2=O)C1 [Compound 190, 6-(1-acryloylazetidin-3-yl)-4-(5-methyl-1H-indazol-4-ylamino)-6,7-dihydro-5H-pyrrolo[3,4-d]pyrimidin-5-one]",+ (+ indicates binding activity up to 10%)
15,"C=CC(=O)N1CC(N2Cc3ccc(-c4nc(N)ccc4C)cc3C2=O)C1 [Compound 162, 2-(1-acryloylazetidin-3-yl)-6-(6-amino-3-methylpyridin-2-yl)isoindolin-1-one]",+ (+ indicates binding activity up to 10%)
16,"C=CC(=O)N1CCCC(N2Cc3cncc(Nc4cc(O)cc5ccccc45)c3C2=O)C1 (stereo not drawn) [Compound 182, 2-(1-acryloylpiperidin-3-yl)-7-(3-hydroxynaphthalen-1-ylamino)-2,3-dihydro-1H-pyrrolo[3,4-c]pyridin-1-one]",+ (+ indicates binding activity up to 10%)
17,"C=CC(=O)N1CC(N2Cc3ccc(-c4c(C)ccc5[nH]ncc45)cc3NC2=O)C1 [Compound 116, 3-(1-acryloylazetidin-3-yl)-7-(5-methyl-1H-indazol-4-yl)-3,4-dihydroquinazolin-2(1H)-one]",+ (+ indicates binding activity up to 10%)
18,"C=CC(=O)N1CCC(N2Cc3cncc(Nc4c(C)ccc5[nH]ncc45)c3C2=O)C1 (stereo not drawn) [Compound 183, 2-(1-acryloylpyrrolidin-3-yl)-7-(5-methyl-1H-indazol-4-ylamino)-2,3-dihydro-1H-pyrrolo[3,4-c]pyridin-1-one]",+ (+ indicates binding activity up to 10%)
19,"C=CC(=O)N1CCC(n2c3ccc(-c4c(O)cccc4F)cc3c(=O)n2C)CC1 [Compound 180, 1-(1-acryloylpiperidin-4-yl)-5-(2-fluoro-6-hydroxyphenyl)-2-methyl-1H-indazol-3(2H)-one]",+ (+ indicates binding activity up to 10%)
20,"C=CC(=O)N1CC(N2Cc3ccc(-c4nc(O)nc5ccccc45)cc3C2=O)C1 [Compound 147, 2-(1-acryloylazetidin-3-yl)-6-(2-hydroxyquinazolin-4-yl)isoindolin-1-one]",+ (+ indicates binding activity up to 10%)
21,"C=CC(=O)N1CC(N2CCCc3cc(-c4cc(O)cc5ccccc45)ccc3C2)C1 [Compound 119, 1-(3-(7-(3-hydroxynaphthalen-1-yl)-4,5-dihydro-1H-benzo[c]azepin-2(3H)-yl)azetidin-1-yl)prop-2-en-1-one]",++ (++ indicates binding activity from 10 to 50%)
22,"C=CC(=O)N1CCC(N2Cc3cncc(Nc4c(C)ccc5[nH]cnc45)c3C2=O)CC1 [Compound 187, 2-(1-acryloylpiperidin-4-yl)-7-(5-methyl-1H-benzo[d]imidazol-4-ylamino)-2,3-dihydro-1H-pyrrolo[3,4-c]pyridin-1-one]",+ (+ indicates binding activity up to 10%)
23,"C=CC(=O)N1CC(N2Cc3ccc(-c4nc(NC)ncc4C)cc3C2=O)C1 [Compound 148, 2-(1-acryloylazetidin-3-yl)-6-(5-methyl-2-(methylamino)pyrimidin-4-yl)isoindolin-1-one]",+ (+ indicates binding activity up to 10%)
24,"C=CC(=O)N1CC(N2Cc3c(cc(-c4c(C)ccc5[nH]ncc45)cc3-c3cnc[nH]3)C2=O)C1 [Compound 143, 2-(1-acryloylazetidin-3-yl)-4-(1H-imidazol-5-yl)-6-(5-methyl-1H-indazol-4-yl)isoindolin-1-one]",+ (+ indicates binding activity up to 10%)
